Reference: the RNAGym collection of RNA variant scans (doi:10.7554/elife.90254)
The source gives no read counts; variants with many changes may rest on few reads.

B1: OR4K15 (parent)
chain: GUUAACGGUCAUAGGCCAUGGAAACUAGGAGCACCAUUUCGCUGCCAGUGAAGAAAUGAACAAAGAAAAUCUGGGCCAGGCAGGCAUCAAAAGAAAUAGUCUUGCGCUCAACCAGAAAGUCUGUAAUCAUUUUAAGGGUA

Variants of: B1
Assay: self-cleavage, relative activity (ratio to wild type); higher = more cleavage; in vitro, sequencing; the parent is a self-cleaving ribozyme

Variant	self-cleavage
U9C A51G A60G A96G U130C U133C	2
A47U A67G A118U	0.14
A33G A47G A98C A117U A140U	0.42
C32U U39C U70A A86G	1.5
A24G U43C C85U A116U A126G	0
G7A A30G A68G	1.33
G15C U38C A52U U57A G74A	0.16
A51G A96G A126G	1.57
A5U A23G A90U	1.29
G15C U19A A30G U108C	0.04
U2C C25U A96G A129G	1.26
A24G U38C A68G U131C	1.95
U12A A86G A90G U108A	0.04
A52G A68G A110G U127C	0.08
A78U A117G U131C	0.17
A78C A82U A114U	0
U19C U37C U87C	1.71
A54G U70C A90G A92G	0.47
U12C G14U C17U	0.66
A5C A62G A90G	1.53
U38A U49C A54G G65A U132C	2.32

Variant	self-cleavage
U43A U57C A78C C88A	0.49
A52G A78G U87A	0.2
A56G A68C G73A	0.16
A5G A23G G41U A47U U120C	0.34
G53A A91G U103C A114G A129U	0.06
A30G A33G A67G U120A U131C	0.97
U3C A5G A22U A27G A52G A110C	0.4
U70C A89U U100C U120C	0.45
U2A A55G A67G	1.64
A30U A63G A68G A95U G137U	1.25
A52G C61U A67G A90G	1.01
A11G A18U U43C U49C A125G	0.18
A5U A60G A125G	1.05
A51U A62G A67C U87C	0.91
A68G U100C A116G	1.46
A96G A114U A118G	0.02
U87C A94G G106A C112U	0
A5G G14A A30G A59G A116G A135U G136U	0.64
U38C A52G A69U A94G	2.07
A18U A55G U57C A62G	0.71
A18G A78G C85U U133A	0.31

Variant	self-cleavage
U38G A56G U108C	0.02
U108C U132C U139C	0
G21U U37A A63G U87A	1.91
A55G A56G A60G A68G	1.38
U19A A23G U139C	1.24
C32A A64G U130C	0.6
A22G A23G A60G A68G U122C	1.47
A23G U57C A82G A117G	0.26
U9A U19C A22U A51G	0.47
A54U A91G A116U U130C	0.01
A52G A66G A69G	0.53
U43C A55G A60G A110U	1.14
U26C A56G U70C	0.83
U9C U12C G15A A47U U49A A68G	0.39
A52U A64G A68G A82G A126G	0
U12C A47G A78U A95G	0.31
C46U A64U A82G U97C U120C	0.1
U37C A59G A64G	2.22
A13U U39C A59G A67G A86U A117G	0.75
G28A A54U A95G	1.49
A23G A62G U103C	0.5

Variant	self-cleavage
A51G A52G A89G U108C	0.08
U19C A69G C105U G136A	0.34
A22G A64G G106A	0.01
A27G A30U U122G	2.29
A5G G14A U127C	1.23
A55C U72C A126G A129C	0.17
U9C A67U A78G	0.11
U37C A64G U120C	1.82
U57C U70C A86G	0.62
A52G A92G U100C	2.27
A36U U49C A56G	0.97
A56G A78G A94G A117C	0.09
A82G A90C A110U	0.44
A5G U87C U122C	0.58
U9A A116G A126G	0.15
A30G A62U A91G	0.86
A47G A54G U102A A116G	0.26
A114U U122C A129C	0.04
A66G U87C U102C	2.29
U9G U87C A92G C113U	0
U9A U43A G73U	0.21
